# Measurements from article PMC4336329 (PLoS ONE, 2015).
# About 14,000 (4.5%) of roughly 310,000 compounds showed an effect of 50% or more. The effect is printed as a negative number. This is one part of the list.
# Target: human ether-à-go-go-related gene (hERG) potassium channel (human, UniProt Q12809)
# Assay: primary screen, population patch clamp on CHO cells stably expressing hERG
# 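Further: peak tail current of the secondary pulse compared with the same well before compound.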
# Sequence of human ether-à-go-go-related gene (hERG) potassium channel (Q12809 whole entry, looked up): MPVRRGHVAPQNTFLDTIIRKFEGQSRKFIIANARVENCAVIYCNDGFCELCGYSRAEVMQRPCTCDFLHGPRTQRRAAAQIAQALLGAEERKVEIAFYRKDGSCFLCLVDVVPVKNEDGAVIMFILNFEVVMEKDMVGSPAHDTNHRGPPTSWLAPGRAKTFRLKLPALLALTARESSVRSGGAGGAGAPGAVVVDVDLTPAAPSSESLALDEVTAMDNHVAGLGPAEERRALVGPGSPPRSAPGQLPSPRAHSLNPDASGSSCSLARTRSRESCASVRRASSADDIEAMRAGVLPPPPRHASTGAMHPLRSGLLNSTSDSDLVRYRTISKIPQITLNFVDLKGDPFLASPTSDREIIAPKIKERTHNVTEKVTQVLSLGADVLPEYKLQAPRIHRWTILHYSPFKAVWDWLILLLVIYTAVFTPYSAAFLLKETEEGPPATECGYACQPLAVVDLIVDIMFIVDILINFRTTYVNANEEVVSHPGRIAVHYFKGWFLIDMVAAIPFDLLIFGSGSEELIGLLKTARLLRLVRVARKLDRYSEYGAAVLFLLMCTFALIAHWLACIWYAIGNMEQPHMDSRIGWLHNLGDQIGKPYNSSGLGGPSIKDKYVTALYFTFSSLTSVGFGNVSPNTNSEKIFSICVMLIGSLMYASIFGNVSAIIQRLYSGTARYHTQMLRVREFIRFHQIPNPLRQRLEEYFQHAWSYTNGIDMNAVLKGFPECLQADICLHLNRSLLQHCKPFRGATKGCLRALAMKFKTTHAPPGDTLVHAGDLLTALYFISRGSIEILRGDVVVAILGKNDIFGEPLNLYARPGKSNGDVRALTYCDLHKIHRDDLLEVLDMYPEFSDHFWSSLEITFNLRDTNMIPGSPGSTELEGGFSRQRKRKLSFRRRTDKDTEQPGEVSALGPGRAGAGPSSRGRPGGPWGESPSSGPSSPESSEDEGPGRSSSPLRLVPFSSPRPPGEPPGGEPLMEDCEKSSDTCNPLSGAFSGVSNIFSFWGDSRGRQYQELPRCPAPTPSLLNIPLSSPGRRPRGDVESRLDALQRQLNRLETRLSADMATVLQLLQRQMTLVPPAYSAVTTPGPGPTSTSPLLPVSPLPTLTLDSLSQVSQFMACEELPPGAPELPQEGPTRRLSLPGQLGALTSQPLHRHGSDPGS
row,SMILES,"hERG current change (%, negative = inhibition) at 10uM [%]"
1,COC(=O)c1cccc(NC(=O)CSc2nnc(C)o2)c1,-0.823
2,COC(=O)Cc1ccc(NC(=S)N2CCC(Cc3ccccc3)CC2)cc1,5
3,Cc1ccc(C(=O)NNc2cc(N3CCCC3)nc(N3CCCC3)n2)cc1,-35.4
4,COc1ccc(C(=O)CSc2n[nH]c(N)n2)cc1,5.79
5,CC1CCCCC1NC(=O)CN1C(=O)CSc2cc(S(=O)(=O)N3CCCCCC3)ccc21 (stereo not shown),-29.6
6,CCN1C(=O)/C(=C\N2CCCCCC2)SC1=S,3.17
7,O=C(Nc1ccc(N2CCN(Cc3ccccc3)CC2)cc1)c1ccccc1[N+](=O)[O-],8.53
8,O=C(NC1=NCCS1)c1ccc(Br)s1,-8.38
9,CC(C)(C)C1CCc2onc(C(=O)Nc3cccc(O)c3)c2C1 (stereo not shown),1.99
10,Nc1cc(=O)[nH]c(SCC(=O)Nc2cccnc2Cl)n1,23.3
11,CCc1nnc(NC(=O)Cc2cccs2)s1,9.45
12,Cc1ccc(S(=O)(=O)Cc2ccc(C(=O)N3CCCC3)o2)cc1,-6.89
13,O=C(Nc1cc(S(=O)(=O)N2CCCCCC2)ccc1OCC(F)(F)F)C1CCC1,9.02
14,COc1ccc(-n2nnc3c(=O)n(CC(=O)OCc4ccccc4)cnc32)cc1,3.03
15,CCCn1ncc(CN2CCCC(C(=O)c3cccc(OC)c3)C2)c1C (stereo not shown),-67.8
16,CCc1nc2ccccc2n1Cc1ccc(F)cc1,-0.73
17,CCc1nnc(NC(=O)c2ccc3c(c2)C(=O)N(CC)C3=O)s1,-7.81
18,O=C(NC(=S)NCc1ccccc1)c1ccccc1,1.09
19,N#Cc1cccc(CN2CCC(=O)N(CCO)CC2)c1,13.8
20,CC1C(=O)C(C)C(c2cccc(Br)c2)NC1c1cccc(Br)c1 (stereo not shown),25.7

row,SMILES,"hERG current change (%, negative = inhibition) at 10uM [%]"
1,CC(C)(C)CC(=O)Nc1cc(S(=O)(=O)N2CCCCCC2)ccc1Cl,20.8
2,CCOC(=O)c1[nH]c(C)c(CN(Cc2ccco2)C(=O)C(F)(F)F)c1C,-5.22
3,CCOc1ccc2c(O)csc2c1,11.6
4,NNC(=O)Cn1cnc2ccccc21,6.05
5,O=C(NC1CCCC1)C(c1ccc(Cl)cc1)N(Cc1ccc(F)cc1)C(=O)CCl (stereo not shown),-6.62
6,CC(Oc1ccccc1F)C(=O)NCCN1CCCCC1 (stereo not shown),1.04
7,CN(CC(=O)Nc1cccc(F)c1)C(=O)C1CCN(C(=O)c2ccc(Cl)cc2)CC1,-55.5
8,O=C(Nc1ccc(F)cc1)Nc1nnc(Cc2ccccc2F)s1,1.87
9,CS(=O)(=O)N1CCN(c2nc3ccc(Cl)cc3s2)CC1,5.72
10,CN=C1S/C(=C\c2ccc(OCC(=O)OC)c(OC)c2)C(=O)N1C,12.6
11,COc1ccccc1C(=O)Nc1ccc(Cc2ccncc2)cc1,-22
12,CCN(Cc1ccccc1)C(=O)c1ccccc1C,1.76
13,C=CCOC(=O)C1=C(C)OC(N)=C(C#N)C1c1ccccc1F (stereo not shown),-38.9
14,CC1CC(C)CN(S(=O)(=O)c2ccc(C(=O)OCC(=O)NCCN3C(=O)CSC3=O)cc2)C1 (stereo not shown),-17.7
15,COc1ccc(-c2nc(SCC(=O)NC3CCCCC3)n[nH]2)cc1,-17.7
16,CN1C(=S)SC(C)(C)C1N(O)C(=O)Nc1ccc(Cl)cc1 (stereo not shown),11.7
17,CCN(CC)c1ccc(C(=O)Nn2cnc3ccccc3c2=O)cc1,2.42
18,CCn1ccc(C(=O)Nc2ccc3c(c2)CCC3)n1,-6.95
19,Cc1ccc(C(=O)N/C(=C/c2cccs2)C(=O)N2CCCCC2)cc1,-35.4
20,COCn1c(COc2ccccc2)nc2ccccc21,-10.6

row,SMILES,"hERG current change (%, negative = inhibition) at 10uM [%]"
1,C1COCCO1.O=C(Nc1cccc2ccccc12)C(=O)C1C(=O)Nc2ccccc21 (stereo not shown),10.7
2,Cc1ccc(S(=O)(=O)[O-])cc1.Cn1cc[n+](C)c1COc1ccc(C=O)cc1,14.6
3,FC(F)Oc1ccc(/C=N/n2c(Cc3ccc(Br)cc3)n[nH]c2=S)cc1,11.7
4,Oc1ccccc1-c1cncn1Cc1ccccc1,-12.8
5,COc1ccc(CN2C(=O)c3cccnc3C2=O)cc1S(=O)(=O)NCc1ccc(C)o1,2.28
6,COC(=O)C(CC(=O)c1ccc(Br)cc1)n1cccn1 (stereo not shown),10.8
7,CCOC(=O)C1=C(CSc2nc3c(cc2C#N)CN(C)CC3)OC(N)=C(C#N)C1c1ccc(F)cc1 (stereo not shown),-30.6
8,COc1cccc(CN2CC(C(=O)N3CCCCCC3)CCC2=O)c1 (stereo not shown),13.4
9,COc1ccc(OC)c(NC(=O)CN2C(=O)COc3ccc(S(=O)(=O)N4CCCC4)cc32)c1,-10.6
10,CSc1cccc(NC(=S)N(Cc2ccc(C)cc2)Cc2cccnc2)c1,-2.68
11,O=C(c1cc(S(=O)(=O)N2CCN(c3ccccc3)CC2)ccc1Cl)N1CCCCCCC1,-22
12,COC(=O)c1ccc(C2C(Oc3ccccc3)C(=O)N2CCc2ccc(F)cc2)cc1 (stereo not shown),15.5
13,Cc1ccc(S(=O)(=O)C2(C(=O)Nc3ccc(C(C)C)cc3)CC2)cc1,1.08
14,CC(=O)/C(=N\Nc1ccccc1)Sc1nnc(-c2ccccc2)n1-c1ccccc1,2.65
15,CCC(=O)Nc1ccc(C(=O)NNC(=O)COc2cc(C)ccc2C)cc1,21.5
16,O=C(Oc1ccccc1C(=O)Oc1ccccc1)c1ccco1,16.6
17,CCCOc1ccc(S(=O)(=O)N2C(=O)CC(=O)N(Cc3ccc(OCC)cc3)C2=O)cc1,2.51
18,O=C(NCCc1ccc(Cl)cc1)/C(=C/c1cccnc1)NC(=O)c1ccccc1,-70.9
